Assay results from US6528630B1 (priority 1997, dated 2003).

Molecular target: human neuronal calcium channel α1D, α2 and β1 subunits (Homo sapiens, UniProt Q01668)
Type: cell-based
Set-up: expressed in transfected cells; host or cells: Xenopus laevis oocytes injected with in vitro transcripts

SMILES	block of inward barium current	effect on current activation	effect on magnitude of inward barium currents	effect on tail currents
[Cd] [cadmium]	blocked completely	–	–	–
COC(=O)C1=C(C)NC(C)=C([N+](=O)[O-])C1c1ccccc1C(F)(F)F (stereo not shown) [Bay K 8644]	–	induced a hyperpolarizing shift in current activation	increased the magnitude of the currents	prolonged the tail currents
